# In PubChem BioAssay AID588855 (National Center for Advancing Translational Sciences (NCATS), 2011):
# The whole screen tested about 410,000 compounds, of which about 5,000 (1.2%) were called active. Inconclusive results, whose numbers are uncertain, are shown with a selection of clear calls. Calls come from the whole dose curve; as a rule, active = well fitted inhibition curve with a large enough effect; inconclusive = small, poorly fitted or top-dose-only effect; inactive = no such curve, though single readings can be large or run the other way. A potency beside an inconclusive call is a rough fit, not a confirmed value.
# Assay: qHTS for Inhibitors of TGF-b; note: nearly all actives have a fitted effect of over 65% in size
# Conditions: HepG2 CAGA-GFP TGF-b/SMAD3 reporter, GFP fluorescence, 18 h, TGF-beta stimulated, 500 pg/mL final; series mostly up to 46.1 µM
# How it was run: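 GFP signal (ex488/em500-530) from TGF-beta-stimulated HEPG2 CAGA-GFP cells, 500 pg/mL final, 18 h at 37 degrees C in DMEM plus 1% FBS, normalized to unstimulated and DMSO-stimulated controls.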
# Potency is the fitted concentration of half-maximal effect; tags give direction and shape of the fitted curve.
row,Compound,Potency
1,CC(C)(Oc1ccc(Cl)cc1)C(=O)Nc1cccc(-c2cn3cccnc3n2)c1,"inconclusive: 25.1 µM [inhibitor, single point]"
2,O=[N+]([O-])c1cc(Cl)cc(/C=N/Nc2nc3ccccc3s2)c1O,inactive
3,Nc1nc2nc(-c3ccc(Cl)cc3)cc(C(F)(F)F)n2n1,"inconclusive: 11.2 µM [inhibitor, single point]"
4,O=C(NC1CCCCCC1)c1[nH]c(C(F)(F)F)nc1-c1ccccc1,"inconclusive: 11.2 µM [inhibitor, partial curve]"
5,CC(=O)N1c2ccccc2C(=O)C1N1CCN(c2cccc(C)c2C)CC1 (configuration not stated),"inconclusive: 0.199 µM [inhibitor, full curve, poor fit]"
6,COc1ccc(Cl)c(-c2cc(C(=O)Nc3ccccc3)[nH]n2)c1,inactive
7,COc1ccc2cc(-c3ccccc3F)ncc2c1,"inconclusive: 5.62 µM [inhibitor, full curve]"
8,CC1CC(C)CN(C(=O)c2ccc(-c3ccc([N+](=O)[O-])cc3)o2)C1 (configuration not stated),inactive
9,Clc1cccc(-n2ncc3c(NCCC4=CCCCC4)ncnc32)c1,inactive
10,NC(=O)C1CCN(C(=O)C2c3ccccc3C(=O)N3CCc4ccccc4C23)CC1 (configuration not stated),"inconclusive: 7.94 µM [inhibitor, partial curve]"
11,O=C(CCS(=O)(=O)c1ccc(F)cc1)Nc1nnc(-c2ccc(F)cc2)o1,"inconclusive: 14.1 µM [inhibitor, partial curve]"
12,C(=N\Nc1nc(-c2cccnc2)nc2ccccc12)/c1ccccc1,inactive
13,C/C(=N\NC(=O)OC(C)(C)C)c1cccc([N+](=O)[O-])c1,inactive
14,COc1ccc2oc(C(=O)OCC(=O)N(C)c3c(N)n(Cc4ccccc4)c(=O)[nH]c3=O)c(C)c2c1,"inconclusive: 0.631 µM [inhibitor, partial curve, poor fit]"
15,C/C(=C\C(=O)OCC(=O)NCc1ccccc1)C(=O)OCC(=O)NCc1ccccc1,"inconclusive: 0.447 µM [inhibitor, partial curve, poor fit]"
16,C/C=C1\COC(C(=O)NCc2ccccc2)(C(F)(F)F)C=C1C=C1CCCCC1 (configuration not stated),active: 11.2 µM
17,COc1ccc(/C=C2\C(=O)ON=C2c2ccccc2)cc1OC,"inconclusive: 25.1 µM [inhibitor, single point]"
18,C[N+]1(CC2COC3(CCCCC3)O2)CCCC1 (configuration not stated),"inconclusive: 8.91 µM [inhibitor, single point]"
19,O=C(NCc1ccccn1)C1CCN(C(=O)c2cc3sccc3n2Cc2ccc(F)cc2)CC1,"inconclusive: 35.5 µM [inhibitor, single point]"
20,COC(=O)c1ccccc1NC(=O)CSc1cc(-c2ccccc2)nc(C)n1,"inconclusive: 17.8 µM [inhibitor, single point]"
21,Cc1ccc(OCCNC(=O)CNC(=O)c2ccc(Cl)c([N+](=O)[O-])c2)cc1,"inconclusive: 12.6 µM [inhibitor, single point]"
22,COc1ccc(NC(=O)N2CCC(CN3CCCC3)CC2)c(OC)c1,inactive
23,CCOc1ccccc1N1CC(C(=O)NCCC2=CCCCC2)CC1=O (configuration not stated),inactive

row,Compound,Potency
1,CCCCN(C)C(=O)C1CCN(c2ccc(S(=O)(=O)N3CCOCC3)cc2[N+](=O)[O-])CC1,"inconclusive: 15.8 µM [inhibitor, single point]"
2,Clc1ccc(-c2ccc(CNCCSc3nnnn3-c3ccccc3)o2)cc1,"inconclusive: 10 µM [inhibitor, partial curve, poor fit]"
3,CCCCCN1C(C(=O)c2ccccc2)=C(NC(=O)c2ccc(OC)c(OC)c2)c2ccccc2S1(=O)=O,"inconclusive: 35.5 µM [inhibitor, single point]"
4,O=C(Nc1nc(-c2ccc([N+](=O)[O-])cc2)cs1)c1c(F)cccc1F,inactive
5,Cc1nc(C(=O)NNC(=O)c2c(-c3c(Cl)cccc3Cl)noc2C)cs1,"inconclusive: 20 µM [inhibitor, single point]"
6,Cc1cc(C)n(-c2nc3cc(Cl)ccc3nc2N2CCN(c3cccc(C)c3C)CC2)n1,inactive
7,Cc1cc2c(c(C)c1Cl)C(c1ccc3c(c1)OCO3)CC(O)(c1ccccc1)O2 (configuration not stated),active: 20 µM
8,C=CCNC(=S)/N=c1/ccccn1CC,"inconclusive: 3.16 µM [inhibitor, single point]"
9,COc1ccccc1CNS(=O)(=O)c1c(C(=O)N2CCC(C)CC2)c(C)n(C)c1C,"inconclusive: 35.5 µM [inhibitor, partial curve, poor fit]"
10,O=C(NN1c2ccccc2CCc2ccccc21)c1ccccc1Br,inactive
11,COc1ccc(O)c(/C=N/Nc2nc(C)cc(-c3ccccc3)n2)c1,"inconclusive: 17.8 µM [inhibitor, partial curve, poor fit]"
12,COc1cc(C2c3cc4c(cc3OC(NNC(N)=O)C2C)OCO4)cc(OC)c1OC (configuration not stated),"inconclusive: 0.501 µM [inhibitor, full curve, poor fit]"
13,O=C(c1ccc(Cn2ccc([N+](=O)[O-])n2)cc1)N1CCN(Cc2ccccc2)CC1,"inconclusive: 35.5 µM [inhibitor, single point]"
14,Cc1ccc(C2CC(c3cccs3)=NN2C(=O)CSc2nc(=O)n3cc(C)ccc3n2)cc1 (configuration not stated),"inconclusive: 17.8 µM [inhibitor, partial curve, poor fit]"
15,CCOC(=O)Cc1csc(NC(=O)c2ccc(N3CCOCC3)cc2[N+](=O)[O-])n1,inactive
16,CC(=O)N(C(C)=O)C1=C(C#N)C2(CCCCC2)Cc2ccccc21,"inconclusive: 15.8 µM [inhibitor, partial curve, poor fit]"
17,Cc1ccn(CC(=O)NC2CC(C)(C)Cc3c2cnn3-c2ccc(F)cc2)n1 (configuration not stated),inactive
18,O=S(=O)(c1ccc2ccccc2c1)n1cnc2ccccc21,"inconclusive: 35.5 µM [inhibitor, single point]"
19,Cc1cc(C)nc(/N=C(\N)Nc2ccc(C)c([N+](=O)[O-])c2)n1,"inconclusive: 0.562 µM [inhibitor, full curve, poor fit]"
20,COc1ccc(C(=O)c2ccc(Cl)c([N+](=O)[O-])c2)cc1,"inconclusive: 2 µM [inhibitor, full curve, poor fit]"
21,Cc1ccc(S(=O)(=O)c2cn(C)c3cc(N4CCOCC4)c(F)cc3c2=O)c(C)c1,"inconclusive: 35.5 µM [inhibitor, single point]"
22,Cc1ccc(S(=O)(=O)NC(=O)Nc2ccc(N(C)C)cc2)cc1,"inconclusive: 22.4 µM [inhibitor, single point]"
23,O=C(CSCc1ccccc1)N/N=C/c1ccc(OCC(=O)N2CCCCC2)cc1,inactive

row,Compound,Potency
1,O=c1c2ccccc2nc(/C=C/c2ccc([N+](=O)[O-])o2)n1CCCO,active: 5.62 µM
2,Cc1cc(C)c(C)c(S(=O)(=O)NC2CCN(Cc3ccccc3)CC2)c1C,"inconclusive: 35.5 µM [inhibitor, single point]"
3,O=C1CC(=Nc2ccccc2)NN1c1ccccc1,"inconclusive: 35.5 µM [inhibitor, single point]"
4,Cc1ccc(CCNC(=O)C2COc3ccccc3C2)cc1 (configuration not stated),"inconclusive: 3.98 µM [inhibitor, full curve, poor fit]"
5,COc1ccc(NC(=O)c2c(NC(=O)c3cccc(C)c3)sc3c2CCC3)cc1,inactive
6,COCCOC(=O)c1c(C)oc2ccc(NS(=O)(=O)c3ccc(C)cc3)cc12,"inconclusive: 35.5 µM [inhibitor, single point]"
7,N#CC1=C(N)NC(SCc2ccc(Cl)cc2)=C(C#N)C12CCCCC2,"inconclusive: 15.8 µM [inhibitor, single point]"
8,NC(=S)N/N=C/c1ccc2c(c1)OCCO2,inactive
9,Cc1ccc(S(=O)(=O)N(C)C)cc1NC(=O)COC(=O)c1ccc2c(=O)n3c(nc2c1)CCC3,inactive
10,CCC(C)(C)NC(=O)C(c1ccccc1F)N(Cc1ccco1)C(=O)Cn1nnc2ccccc21 (configuration not stated),"inconclusive: 35.5 µM [inhibitor, single point]"
11,CC(C(=O)Nc1ccc(C(F)(F)F)cc1)N(C)CC(=O)N1CCN(Cc2ccccc2)CC1 (configuration not stated),"inconclusive: 10 µM [inhibitor, partial curve]"
12,Cc1ccccc1CNC(=O)CCCn1ncn2c(cc3occc32)c1=O,"inconclusive: 12.6 µM [inhibitor, partial curve]"
13,O=C1C2=C(Nc3ccccc3SC2c2ccc(C(F)(F)F)cc2)c2ccccc21 (configuration not stated),active: 11.2 µM
14,OC(CN1CCN(c2ccc(C(F)(F)F)cn2)CC1)c1ccccc1 (configuration not stated),inactive
15,Cn1cc(CNCc2ccc(OC(F)(F)F)cc2)c(-c2ccc3c(c2)OCCO3)n1,"inconclusive: 5.01 µM [inhibitor, full curve, poor fit]"
16,Cc1nc(N2CCN(C(=O)c3ccco3)CC2)c2c3c(sc2n1)CCC3,"inconclusive: 2.24 µM [inhibitor, partial curve, poor fit]"
17,O=C(O)CSc1cc(NS(=O)(=O)c2cccc([N+](=O)[O-])c2)c2ccccc2c1O,active: 10 µM
18,COc1ccccc1NS(=O)(=O)c1ccc2oc(SCc3ccc(C#N)cc3)nc2c1,"inconclusive: 0.282 µM [inhibitor, full curve, poor fit]"
19,CC(CC(=O)Nc1nc2ccccc2[nH]1)c1ccccc1 (configuration not stated),"inconclusive: 10 µM [inhibitor, partial curve, poor fit]"
20,Cc1ccccc1N1CCN(C(=O)c2cc(C3CC3)nn2-c2ccccc2)CC1,"inconclusive: 2.82 µM [inhibitor, partial curve]"
21,COc1ccc(NC(=O)CSc2ccc(F)cc2)cc1S(=O)(=O)N1CCCCC1,"inconclusive: 22.4 µM [inhibitor, single point]"
